Test results from PubChem BioAssay AID624296 (National Center for Advancing Translational Sciences (NCATS), 2012).
Among all 350,000 compounds or so, about 9,900 (2.8%) were called active. Inconclusive results, whose numbers are uncertain, are shown with a selection of clear calls. The call rests on the fitted dose curve; in most records, active means well fitted activation curve with a large enough effect; inconclusive means small, poorly fitted or top-dose-only effect; inactive means no such curve, though single readings can be large or run the other way. No potency is given beside an inconclusive call; the fits are too rough.

test: A quantitative high throughput screen for small molecules that induce DNA re-replication in MCF 10a normal breast cells.; further: nearly all actives have a fitted effect of over 50% in size; conditions: MCF 10A DNA re-replication, Hoechst nuclear intensity, 48 h; series mostly up to 46.1 µM
Potency means the concentration at half of the fitted maximal effect; tags describe the fitted curve by direction and shape.

SMILES | Potency
O=C(c1cccc(Oc2c(Cl)cccc2[N+](=O)[O-])c1)N1CCCCC1 | inactive
COc1cccc(-c2nc(NC3CCCC3)c3ccccc3n2)c1O | inconclusive [activator, single point]
CCN(CC(=O)NC(C)(C)C)Cc1nc2c(Br)cc(Br)cc2c(=O)[nH]1 | inconclusive [activator, full curve, poor fit]
COc1ccccc1C(=O)Nc1cccc(NC(=O)c2ccccc2C)c1 | inactive
CCOc1cc(/C=C2\C(=O)N(Cc3ccc(C)cc3)C(C)=C2C(=O)OC)ccc1O | inconclusive [activator, single point]
COC(=O)N/N=C/c1c(C)nn(-c2cccc(Cl)c2)c1Cl | inconclusive [activator, single point]
COc1cc(SC)ccc1C(=O)Nc1cc(C)c(OCC(=O)N2CCOCC2)c(C)c1 | inactive
O=C(Nc1ccc(Cl)cn1)c1ccc2c(c1)OCCO2 | inconclusive [activator, single point]
O=C(CSCc1ccccc1)NC1CCSC1=O (configuration not stated) | inconclusive [activator, partial curve, poor fit]
O=C(C1=C[C@@H](c2ccc(C(F)(F)F)cc2)C[C@@H](OCCCCO)O1)N1CCN(Cc2ccccc2)CC1 | inconclusive [activator, partial curve, poor fit]
COc1cc(C)c(Cl)cc1S(=O)(=O)n1cnc(C)c1 | inactive
COc1cc(/C=N/NC(=O)c2cccc(NC(=O)c3ccccc3C)c2)ccc1O | inconclusive [activator, single point]
CCOc1ccc(N2C(=O)/C(=C/c3ccccc3)N=C2SC)cc1 | active: 5.8 µM
Cc1ccccc1/C=N/Nc1nc2ccccc2c(=O)n1O | inactive
Cc1ccc(N/C=C/C(=O)c2cccs2)cc1 | inactive
CN(CC(=O)Nc1ccccc1Br)C(=O)c1ccccc1-c1nc2ccccc2s1 | inactive
C/C(=C\C(=S)Nc1ccccc1)Nc1ccc2ccccc2c1 | inconclusive [activator, single point]
CC(C)CNC(=O)c1cccc(Cn2cc(Cl)cn2)c1 | inconclusive [activator, partial curve, poor fit]
Clc1ccc(CSc2ncnc3c2ncn3C2CCCCO2)cc1 (configuration not stated) | inconclusive [activator, single point]
CCOC(=O)/C=C/C(=O)Nc1ccccc1-c1ccccc1NC(=O)/C=C/C(=O)OCC | active: 5.8 µM
C/C(=N\NC(=O)c1nnn(-c2nonc2N)c1CSc1ccc(C)cc1)c1ccco1 | inactive
O=C(c1ccc2ccccc2c1)N1CCN(c2ccc([N+](=O)[O-])c(N3CCOCC3)c2)CC1 | inconclusive [activator, full curve, poor fit]
COc1cc(/C=C2/C(=O)NN(c3cccc(C)c3)C2=O)ccc1OC(=O)c1ccco1 | inconclusive [activator, single point]
O=C(NCC(c1ccco1)N1CCCCC1)c1cnc(Cl)c(Cl)c1 (configuration not stated) | inconclusive [activator, partial curve]

SMILES | Potency
N=C1/C(=C/c2coc3ccccc3c2=O)C(=O)N=C2SC(c3ccco3)=NN12 | inconclusive [activator, single point]
Cc1onc(-c2c(Cl)cccc2Cl)c1C(=O)NC(=S)N1CCOCC1 | inactive
C=CCN(C(=O)c1csnn1)C(C(=O)NC1CCCCC1)c1ccc(F)cc1 (configuration not stated) | inconclusive [activator, partial curve, poor fit]
CCCCCc1cc(=O)oc2c(C(CCN3CCCCC3)c3ccc4c(c3)OCO4)c(OC)cc(OC)c12 (configuration not stated) | inactive
CCN1CCN(c2c(Cl)cccc2NC(=O)c2ccc(Br)o2)CC1 | inconclusive [activator, single point]
CCOC(=O)CN1C(=O)S/C(=C/c2ccc(OCc3ccc(C(=O)O)cc3)cc2)C1=O | inactive
O=C(O)c1cccc(-n2c(/C=C/c3cccc([N+](=O)[O-])c3)nc3ccccc3c2=O)c1 | inconclusive [activator, single point]
O=C(c1cc2sccc2n1Cc1ccc(F)cc1)N1CCN(c2nc3ccccc3s2)CC1 | inactive
O=c1c2ccccc2c(C=NCc2ccccn2)c(O)n1-c1ccccc1 | inactive
N#Cc1c(-c2ccccc2)nc(SCc2ccc(Cl)cc2)[nH]c1=O | inconclusive [activator, single point]
O=C(CCc1nc2ccccc2c(=O)[nH]1)NCc1cccc(Cl)c1 | inconclusive [activator, single point]
COc1cc(CC(=O)Nc2ccc3c(c2)CCC3)cc(OC)c1OC | inconclusive [activator, partial curve, poor fit]
Cc1nn(C(=O)CNS(=O)(=O)c2ccccc2)c(C)c1Sc1ccc(Cl)cc1 | inconclusive [activator, single point]
CC(=O)[C@@]1(O)CCC2C3C=CC4=CC(=O)CC[C@]4(C)C3CC[C@@]21C (some centres not stated) | inactive
CN(C)C(/C=C/Nc1ccc(F)cc1F)=C(C#N)C#N | inconclusive [activator, single point]
Cc1ccc(N2C(=N)/C(=C3/Nc4ccccc4S3)C(c3ccccc3)C2=O)cc1 (configuration not stated) | inactive
COc1ccccc1N(CC(=O)Nc1ccc(Br)cc1F)S(=O)(=O)c1cccs1 | inconclusive [activator, full curve, poor fit]
COc1cc(OC)c(C(=O)N/N=C/c2ccoc2)cc1OC | inconclusive [activator, partial curve, poor fit]
O=C(NNc1c(F)c(F)cc(F)c1F)c1ccc(Cl)nc1 | inconclusive [activator, single point]
O=C(Nc1ccccc1Cl)N1CCN(Cc2ccc3c(c2)OCO3)CC1 | inactive
O=C(Nc1nc(-c2ccccn2)cs1)c1ccc([N+](=O)[O-])o1 | active: 2.31 µM
COc1ccccc1-c1ccc(SCC(=O)NCCc2ccccc2)nn1 | inactive
COc1ccc(OC)c(NC(=O)CN(Cc2ccc(F)cc2)C2CCCCC2)c1 | active: 18.4 µM
COC(=O)CC(NC(=O)c1cccs1)c1ccc(OC)c(OC)c1 (configuration not stated) | inconclusive [activator, single point]

SMILES | Potency
COc1ccccc1NS(=O)(=O)c1ccc(N/N=C/c2c(C)nn(-c3ccccc3)c2N2CCCC2)c([N+](=O)[O-])c1 | inconclusive [activator, partial curve]
Cn1c(CN2CCN(c3ccc(Cl)cc3)CC2)nc2ccccc21 | inconclusive [activator, partial curve, poor fit]
Nc1c(C=C2C=CC(=O)C=C2)c(=O)nc2snc(SCc3ccccc3)n12 | inactive
CC(CNS(=O)(=O)c1ccccc1)Sc1ncccn1 (configuration not stated) | inconclusive [activator, single point]
CC(=O)c1ccc(NC(=O)Nc2cccc(Cl)c2)cc1 | inconclusive [activator, single point]
Cc1cc(C)c2nc(N3CCCN(C(=O)c4cnccn4)CC3)c(C#N)cc2c1 | inconclusive [activator, single point]
CC(C)(C)C1CCc2sc(-c3nnc(CCl)o3)cc2C1 (configuration not stated) | inconclusive [activator, single point]
O=C(COC(=O)c1cccnc1Nc1ccccc1F)NCc1ccc2c(c1)OCO2 | inconclusive [activator, partial curve, poor fit]
Cc1ncc(CO)c(/C=N/NC(=O)c2cc3c(s2)CCCC3)c1O | inconclusive [activator, single point]
CCCOc1nc(SCCC)nc2c1cnn2-c1ccccc1 | inconclusive [activator, partial curve, poor fit]
Cc1ccc(C(=O)NC(=S)NCC2CCCO2)cc1[N+](=O)[O-] (configuration not stated) | inactive
COc1ccc(N2CCN(CCCNC(=O)Nc3ccccc3)CC2)cc1 | inactive
Cc1cc2occ(CC(=O)NC3=NCCS3)c2cc1C(C)C | inconclusive [activator, full curve, poor fit]
Cc1cccc(CCN2C(Nc3ccccc3)=NC[C@@H]2CC(C)C)c1 | inconclusive [activator, single point]
Cc1csc(NC(=O)c2sc3nc(-c4cccs4)ccc3c2N)n1 | inactive
O=C(NCCSc1ccc(Br)cc1)c1ccccc1 | inconclusive [activator, partial curve, poor fit]
Cc1cc2n(n1)C(c1cccs1)Nc1ccccc1-2 (configuration not stated) | inconclusive [activator, full curve, poor fit]
Cc1ccc(CN(C(=O)Cn2nnc3ccccc32)C(C(=O)NCc2ccco2)c2ccc(C)o2)cc1 (configuration not stated) | inactive
O=C(NCc1ccco1)c1ccc2ccccc2n1 | inactive
COc1cccc2c1C(=O)C=C(C)C2=O | active: 23.1 µM
Cc1sc(NC(=O)/C=C/c2ccco2)c(C(=O)OC(C)C)c1C | inactive
CCOC(=O)c1sc(=S)n(C)c1NC(=O)c1ccc(OC)cc1 | inactive
O=C(O)CCN1C(=O)c2ccc(NC(=O)c3cccs3)cc2C1=O | active: 20.6 µM
CCC(=O)Nc1ccc(S(=O)(=O)N2CCC(c3nc4ccccc4[nH]3)CC2)cc1 | inactive
